# In PubChem BioAssay AID1347120 (National Center for Advancing Translational Sciences (NCATS), 2019):
# Hit rate of the full screen: of about 390,000 compounds, about 930 (0.24%) were called active. The shares of active, inactive and inconclusive entries below differ from those in the screen. Calls come from the whole dose curve; as a rule, active = well fitted activation curve with a large enough effect; inconclusive = small, poorly fitted or top-dose-only effect; inactive = no such curve, though single readings can be large or run the other way. Where the call is inconclusive, the potency comes from a doubtful curve fit.
# Assay: qHTS for Suppressors of FUS Proteinopathy: Primary screen using FUS-linked yeast assay; note: nearly all actives have a fitted effect of over 55% in size
# Conditions: S. cerevisiae FUS-expressing, OD600, 24 h; Potency: growth rescue; series mostly up to 76.6 µM
# How it was run: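 Compound concentration series was pinned onto galactose-induced FUS-expressing yeast seeded at OD 0.005. Plates sat 24hr at 30C; absorbance at 600 nm gave growth. DMSO served as background control.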
# Potency is the fitted concentration of half-maximal effect; tags give direction and shape of the fitted curve.
row,SMILES,Potency
1,CC(=O)N1CCOc2ccc(S(=O)(=O)N3CCN(c4cccc(C(F)(F)F)c4)CC3)cc21,"inconclusive: 35.5 µM [activator, single point]"
2,Cc1cccc(CNC(=O)c2ccc3c(c2)c(C)c(C)n3Cc2ccccc2)c1,inactive
3,COc1cc(C2(c3ccc(O)c(OC)c3)C(=O)Nc3c(Br)cc(Br)cc32)ccc1O,inactive
4,CC(C)Cc1ccc(CN2C(C(C)C)C(=O)N(Cc3cn(CCC4OCCO4)nn3)CCS2(=O)=O)cc1 (stereo not drawn),"inconclusive: 22.4 µM [activator, partial curve, poor fit]"
5,O=S(=O)(CCNC1CC1)NC1CCCCC1,inactive
6,CCOc1cccc2sc(N(CCN(C)C)C(=O)c3cc4ccccc4cc3OC)nc12,"inconclusive: 10 µM [activator, single point]"
7,COc1cc(Nc2nc(SCc3ccccc3Cl)nc3ccccc23)cc(OC)c1,"inconclusive: 25.1 µM [activator, single point]"
8,CCCn1c(SCC(=O)Nc2cc(Cl)ccc2OC)nc(O)cc1=O,"inconclusive: 50.1 µM [activator, single point]"
9,O=C(Nc1ccccc1F)C1CCCN(S(=O)(=O)c2ccc(-n3cnnn3)cc2)C1 (stereo not drawn),inactive
10,O=C(CSc1nnc(CNC(=O)C23CC4CC(CC(C4)C2)C3)n1-c1ccccc1)Nc1ccc(F)cc1,"inconclusive: 10 µM [activator, partial curve]"
11,COc1ccc(/C=C\C(=O)O[C@@H]2C(O)C(O[C@@H]3OC(C)[C@H](O[C@@H]4OCC(O[C@H]5O[C@H](CO)[C@@H](O)C(O)C5O)C(O)C4O)C(O)C3O)[C@H](OC(=O)[C@]34CCC(C)(C)C[C@@H]3C3=CCC5[C@@]6(C)CC(O)C(O[C@@H]7OC(CO)C(O)[C@H](O)[C@H]7O)[C@@](C)(C(=O)O)C6CC[C@@]5(C)[C@]3(CO)CC4)O[C@H]2C)cc1 (stereo partly drawn),"inconclusive: 11.2 µM [activator, partial curve, poor fit]"
12,CSc1cccc(N2CC(C(=O)N(Cc3nnc(-c4ccccc4Cl)o3)C3CC3)CC2=O)c1 (stereo not drawn),inactive
13,CN(C)c1ccc(N=Nc2ccc(S(N)(=O)=O)cc2)cc1,inactive
14,O=C(c1ccc2c(=O)n(Cc3ccc4c(c3)OCO4)c(=S)[nH]c2c1)N1CCCCC1,inactive
15,CC1=C(C(=O)Nc2ccccc2)C(c2ccc(O)cc2)N2C(=O)CSC2=N1 (stereo not drawn),"inconclusive: 31.6 µM [activator, single point]"
16,COc1cccc(C(=O)NC(C)c2ccc(-c3ccccc3)cc2)c1OC (stereo not drawn),"inconclusive: 15.8 µM [activator, partial curve, poor fit]"
17,CCOc1ccc(NC(=NCc2ccc3c(c2)OCO3)SC2CC(=O)N(c3ccc(OCC)cc3)C2=O)cc1 (stereo not drawn),"inconclusive: 39.8 µM [activator, partial curve, poor fit]"
18,O=C(NCc1ccco1)c1ccc2c(c1)N(Cc1ccc(Cl)cc1)C(=O)c1ccccc1S2(=O)=O,"inconclusive: 14.1 µM [activator, partial curve]"
19,Cc1cn2c(=O)c(S(=O)(=O)Nc3ccc(F)cc3F)c(C)nc2s1,inactive
20,Clc1ccc(-c2csc(N/N=C/c3cccnc3)n2)c(Cl)c1,"inconclusive: 2.82 µM [activator, full curve]"
21,Oc1ccc(C[C@H]2CN([C@@H](Cc3cccc(O)c3)CN3CCC[C@@H]3CN3C(=S)NC[C@@H]3Cc3ccccc3)C(=S)N2CC2CCCCC2)cc1,"inconclusive: 28.2 µM [activator, single point]"

row,SMILES,Potency
1,COc1ccc(C(=O)Nc2ccc3c(c2)CCCN3S(=O)(=O)c2ccc(C)cc2)c(OC)c1,"inconclusive: 39.8 µM [activator, single point]"
2,COc1ccc2c(c1)CC/C(=C\c1ccc(OC)c(Cn3cccn3)c1)C2=O,"inconclusive: 28.2 µM [activator, partial curve, poor fit]"
3,Cc1cc(C)cc(CC(=O)N2CCC2(C)C(=O)NS(=O)(=O)c2ccc(C(C)(C)C)cc2)c1 (stereo not drawn),"inconclusive: 50.1 µM [activator, single point]"
4,CN(C(=O)c1ccccc1C(=O)OCC(=O)c1ccc(Br)cc1)c1ccccc1,"inconclusive: 31.6 µM [activator, single point]"
5,O=C(Nc1ccn(CCCNCc2cccc3ccccc23)c(=O)n1)OCc1ccccc1,"inconclusive: 11.2 µM [activator, single point]"
6,N#Cc1cccc(C(=O)OCC(=O)NCc2ccco2)c1,inactive
7,O=C(NCc1ccccc1F)c1sc2ncccc2c1-n1cccc1,inactive
8,CCOc1ccc(C2=NC(c3cccs3)=Nc3ccc(CC)cc3N2)cc1OCC,"inconclusive: 35.5 µM [activator, single point]"
9,Clc1cccc(Cc2c(-c3cccc(Cl)c3)nc3ccc(Br)cn23)c1,inactive
10,Cc1[nH]c2ccc(Br)cc2c1CCNC(=O)c1cc2ccccc2oc1=O,inactive
11,Nc1nc2c(s1)CCc1c-2cnn1-c1ccccc1,inactive
12,Cn1cc(CN(CCCN2CCOCC2)C(=S)Nc2cccc(Cl)c2)c2ccccc21,"inconclusive: 20 µM [activator, partial curve, poor fit]"
13,O=C(NC1CCC1)O[C@H]1CC[C@@]23CCCN2C(=O)CCC[C@H]3C1,inactive
14,Cc1cc(C)cc(-n2cnc3cc(C(=O)NC4CCCCCC4)ccc32)c1,"inconclusive: 50.1 µM [activator, single point]"
15,CSc1cc(/C=N/O)c(SC)s1,inactive
16,COc1cccc(Cn2c(=O)n(-c3cccc(Cl)c3)c(=O)c3c4c(sc32)CN(C(C)=O)CC4)c1,"inconclusive: 28.2 µM [activator, partial curve, poor fit]"
17,CSC1=NC(C)(C)C=C(/C=C/c2ccc(Cl)cc2)N1,"inconclusive: 31.6 µM [activator, partial curve, poor fit]"
18,COC(=O)C(Cc1ccccc1)NC(=O)COc1ccc(C(C)(C)C)cc1 (stereo not drawn),"inconclusive: 28.2 µM [activator, single point]"
19,CCOC(=O)N1CCc2c(sc3c2c(=O)n(Cc2ccccc2)c(=O)n3Cc2cccc(C)c2)C1,inactive
20,CC(C)(C)N(Cc1ccccc1)C(=O)COC(=O)C1CC(=O)N(Cc2ccccc2)C1 (stereo not drawn),inactive
21,CC(C)(C)OC(=O)N1CCC(NC(=O)c2nc[nH]c2C(=O)NC2CCN(C(=O)OC(C)(C)C)CC2)CC1,active: 11.2 µM

row,SMILES,Potency
1,CCOc1ccc(CNC(=O)C2CCN(c3nnc(-n4c(C)ccc4C)s3)CC2)cc1,"inconclusive: 25.1 µM [activator, single point]"
2,Cc1ccc(NC(=O)c2oc3ccccc3c2NC(=O)Cc2ccccc2)cc1,inactive
3,CC(=O)c1ccc(N2CCN(S(=O)(=O)c3ccc4c(c3)C(Cl)(Cl)C(=O)N4)CC2)cc1,"inconclusive: 35.5 µM [activator, single point]"
4,COc1ccccc1NC(=O)CSC1=Nc2ccccc2C2=NC(Cc3ccccc3)C(=O)N12 (stereo not drawn),"inconclusive: 31.6 µM [activator, single point]"
5,Cc1cc(C)c(NC(=O)C2CCCN(S(=O)(=O)c3c(C)noc3/C=C/N(C)C)C2)c(C)c1 (stereo not drawn),"inconclusive: 6.31 µM [activator, partial curve, poor fit]"
6,O=C(COc1ccccc1Cl)Nc1nc(-c2cccs2)cs1,"inconclusive: 31.6 µM [activator, partial curve, poor fit]"
7,CC(C)CN1C=C2C(=O)C(C)(OC(=O)C3CCCC3)C(=O)C=C2C=C1c1ccsc1 (stereo not drawn),"inconclusive: 22.4 µM [activator, partial curve]"
8,CCOc1ccccc1CNc1nc2nc3c(c(=O)n2[nH]1)CCC3,"inconclusive: 3.55 µM [activator, full curve]"
9,COc1ccc(-n2c(=S)[nH]c3c(sc(=S)n3-c3ccccc3)c2=O)c(OC)c1,"inconclusive: 7.08 µM [activator, partial curve, poor fit]"
10,Cc1c(C(=O)NCc2ccc3c(c2)OCCO3)sc(=O)n1Cc1ccc(S(=O)(=O)N(C)C)cc1,"inconclusive: 35.5 µM [activator, single point]"
11,CC1CCC/C(=C\Nc2ccc3c(c2)OCO3)C1=O (stereo not drawn),active: 15.8 µM
12,O=C(CCCN1C(=O)/C(=C/c2ccccc2Cl)SC1=S)N1CCCC1,"inconclusive: 22.4 µM [activator, partial curve]"
13,COc1ccccc1N1CCN(C(=O)c2sc3nc(-c4ccc(F)cc4)cn3c2C)CC1,"inconclusive: 31.6 µM [activator, single point]"
14,Cc1cccn2cc(-c3cccc(NC(=O)C(C)C)c3)nc12,inactive
15,CC#CCN(CC#CC)S(=O)(=O)c1ccc(S(=O)(=O)N2CCOCC2)cc1,"inconclusive: 14.1 µM [activator, partial curve]"
16,Cc1cc(Br)ccc1NC(=O)CN(C)C(=O)C1CCN(c2ncnc3sc(C)c(C)c23)CC1,"inconclusive: 35.5 µM [activator, single point]"
17,COc1ccc(C(=O)Nc2ccnn2C2CCN(Cc3ccccn3)CC2)cc1,inactive
18,CCOC(=O)[C@]12CCCC=C1N(Cc1ccc(Cl)cc1Cl)C(=O)[C@H](CC(=O)NCc1cccc3ccccc13)C2,"inconclusive: 15.8 µM [activator, single point]"
19,Cc1ccc(S(=O)(=O)N2CCN(C3CC(=O)N(CCc4ccccc4)C3=O)CC2)cc1C (stereo not drawn),"inconclusive: 44.7 µM [activator, single point]"
20,c1ccc2c(c1)Cc1ccccc1O2,inactive
21,CCN(CC)S(=O)(=O)c1ccc(C(=O)NCCSc2c(-c3ccc(F)cc3)[nH]c3ccccc23)cc1,"inconclusive: 11.2 µM [activator, partial curve]"
